Test results from PubChem BioAssay AID1347417 (National Center for Advancing Translational Sciences (NCATS), 2020).
Hit rate of the full screen: of about 120,000 compounds, about 5,300 (4.4%) were called active. This list was built around the results that the source calls inconclusive (neither active nor inactive); the mix of calls is not that of the screen. Calls follow the shape of the dose curve; as a rule, active = well fitted inhibition curve with a large enough effect; inconclusive = small, poorly fitted or top-dose-only effect; inactive = no such curve, though single readings can be large or run the other way. Potencies beside an inconclusive call are fits to weak or partial responses and may not hold up.

Assay: qHTS Primary assay for Inhibitors of Plasmodium falciparum Dd2 growth in vitro; also: nearly all actives have a fitted effect of over 65% in size;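 as to activity, negative = inhibition: plate controls were DMSO vehicle for no effect and reference drug for full effect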
Conditions: P. falciparum Dd2 growth, SYBR Green, 72 h; activity, negative = inhibition: at 28.9 µM (top of the series) unless noted; series mostly up to 28.9 µM
How it was run: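 Infected erythrocytes (Dd2, 0.3% parasitemia, 2.5% hematocrit final) are added to compound in RPMI-1640/Albumax II medium, grown 72 h at 37C in low oxygen, then lysed with saponin/Triton-X containing SYBR Green and read by fluorescence.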
Potency is read from the fitted curve at half-maximal effect; tags tell the direction and shape of the fitted curve.

Q: Which Potency does the source give for `O=C1CC(c2ccccc2)N(Cc2ccncc2)CCCN(S(=O)(=O)c2cccs2)CCN1` (centres undefined) here?
A: Its Potency is inconclusive: 0.631 µM [inhibitor, full curve, poor fit].

Q: For `CCOC(=O)c1cc(-c2ccccc2)n(CCC(=O)Nc2ccc(Cl)c(C(F)(F)F)c2)c1C`, which Potency is on record?
A: The Potency was active: 2.82 µM.

Q: Which Potency does the source give for `CN(C(=O)c1ccccc1Cl)C1CCCc2ccccc21` (centres undefined) here?
A: The Potency was inconclusive: 31.6 µM [inhibitor, single point].

Q: Which Potency does the source give for `OC(COc1ccccc1CNCC1CCOCC1)CN1CCSCC1` (centres undefined) here?
A: The Potency was inconclusive: 7.94 µM [inhibitor, partial curve, poor fit].

Q: With `CN(Cc1ccccc1)C1CCOC2(CCN(C(=O)NC3CCCC3)CC2)C1` (centres undefined) as the compound, how does the Potency read?
A: Its Potency is active: 6.31 µM.

Q: With `O=C(CCc1nc2cccnc2n1Cc1cccs1)Nc1cccc(Cl)c1` as the compound, how does the Potency read?
A: The Potency was active: 11.2 µM.

Q: For `CN(C)Cc1cc(C[C@@H]2C[C@H](NC(=O)COc3ccccc3)C2(C)C)no1`, which Potency is on record?
A: Its Potency is inconclusive: 20 µM [inhibitor, single point].

Q: With `Cc1c(Cl)cccc1NC(=O)Cn1c(=O)nc(-c2ccccc2)c2ccccc21` as the compound, how does the Potency read?
A: Its Potency is inconclusive: 17.8 µM [inhibitor, single point].

Q: With `COCCN[C@H]1[C@@H]2OC[C@@H](O2)[C@@H](NCc2ccc(OC(F)(F)F)cc2)[C@@H]1O` as the compound, how does the Potency read?
A: Its Potency is inconclusive: 31.6 µM [inhibitor, single point].

Q: With `Cc1oc(C)c2c(=O)cc(-c3ccc4c(c3)OCO4)cc(OC(=O)c3ccccc3Cl)c12` as the compound, how does the Potency read?
A: Its Potency is inconclusive: 17.8 µM [inhibitor, single point].

Q: With `CCN1C(=O)CCN(C(C)=O)CC12CCOCC2` as the compound, how does the Potency read?
A: Its Potency is “inactive”.

Q: For `CCOC(=O)N1CCc2c(sc(NCc3ccc(OC)c(OC)c3OC)c2C(=O)Nc2ccc(OC)cc2OC)C1`, which Potency is on record?
A: The Potency was inconclusive: 10 µM [inhibitor, single point].

Q: Which Potency does the source give for `Cc1nc2c(c(-c3ccc(Cl)cc3)n1)CCN(C(=O)c1ccccc1)CC2` here?
A: Its Potency is “inactive”.

Q: With `CCCC(=O)NCC(c1ccc2c(c1)OCO2)N1CCN(c2ccccc2)CC1` (centres undefined) as the compound, how does the Potency read?
A: Its Potency is “inactive”.

Q: For `O=C(c1csc(Cc2ccccc2)n1)N1Cc2ccccc2C(O)C1` (centres undefined), which Potency is on record?
A: The Potency was “inactive”.

Q: With `COc1cccc(-c2ccc3c(N)c(C(=O)NCc4ccc(Cl)cc4)sc3n2)c1` as the compound, how does the Potency read?
A: Its Potency is inconclusive: 15.8 µM [inhibitor, single point].

Q: For `O=c1c2c(CO)c(-c3ccc(F)cc3)nn2ccn1Cc1ccc(F)cc1`, which Potency is on record?
A: The Potency was inconclusive: 5.01 µM [inhibitor, partial curve, poor fit].

Q: For `CC1(C)[C@H](Cc2cc(COc3ccccc3)on2)C[C@@H]1NC(=O)c1ccnc(Cl)c1`, which Potency is on record?
A: The Potency was inconclusive: 7.94 µM [inhibitor, partial curve, poor fit].

Q: For `O=C(CC1CCOCC1)Nc1ccccc1`, which Potency is on record?
A: The Potency was “inactive”.

Q: With `CN(C)CCC(=O)N1Cc2ccccc2CC2(CCCCN2CC2CCOCC2)C1` (centres undefined) as the compound, how does the Potency read?
A: The Potency was “inactive”.

Q: Which Potency does the source give for `COCC[C@]1(O)CCN(Cc2cc(F)ccc2-n2cccn2)C[C@H]1C` here?
A: The Potency was “inactive”.

Q: With `O=C(CN1C(=O)NC(c2ccccc2Cl)C2=C1COC2=O)Nc1ccc2c(c1)OCO2` (centres undefined) as the compound, how does the Potency read?
A: The Potency was “inactive”.

Q: For `O=C(NCC(F)(F)F)c1cc(Br)cn2ccnc12`, which Potency is on record?
A: The Potency was “inactive”.

Q: With `CN1CCN(Cc2cc(F)ccc2Cl)CC12CCNC(=O)CC2` (centres undefined) as the compound, how does the Potency read?
A: The Potency was inconclusive: 11.2 µM [inhibitor, partial curve].

Q: Which Potency does the source give for `COc1ccc2[nH]c(C(=O)NC3CCc4nn(C)c(=O)n4CC3)cc2c1` (centres undefined) here?
A: Its Potency is inconclusive: 4.47 µM [inhibitor, partial curve, poor fit].

Q: With `O=C(c1nnc(COc2cc(F)cc(F)c2)n1-c1ccccc1)N1CCC[C@@H]1c1nc2ccccc2[nH]1` as the compound, how does the Potency read?
A: Its Potency is “inactive”.

Q: For `Cc1cccc(NC(=O)Cn2ccn3nc4c(c3c2=O)CCCC4)c1`, which Potency is on record?
A: The Potency was “inactive”.

Q: For `Cc1onc(-c2ccc(F)cc2F)c1C(=O)Nc1cccc(C(F)(F)F)c1`, which Potency is on record?
A: The Potency was inconclusive: 17.8 µM [inhibitor, single point].

Q: Which Potency does the source give for `O=S(=O)(c1ccc2c(c1)OCCO2)N1CCC2(CCNCC2)C1` here?
A: Its Potency is “inactive”.

Q: With `CC(=O)NCCCC(=O)N1CCOC2(CCN(C(=O)c3c(C)noc3C)CC2)C1` as the compound, how does the Potency read?
A: The Potency was “inactive”.

Q: For `O=c1[nH]c(C2CCCN(Cc3ccc(-c4ccccc4)cc3)C2)nc2ccc(F)cc12` (centres undefined), which Potency is on record?
A: Its Potency is inconclusive: 12.6 µM [inhibitor, partial curve, poor fit].

Q: With `O=C(C1Cc2ccccc2O1)N1CCc2onc(-c3ccc(F)c(F)c3)c2C1` (centres undefined) as the compound, how does the Potency read?
A: The Potency was “inactive”.

Q: For `CCCN1CCC2(CCN(C(=O)c3ccc(OC)cc3)CC2)Oc2ccccc21`, which Potency is on record?
A: The Potency was inconclusive: 12.6 µM [inhibitor, partial curve].

Q: For `Cc1ccccc1C(=O)N1CCC(n2cc(-c3nc(-c4ccccc4)no3)nn2)CC1`, which Potency is on record?
A: The Potency was “inactive”.

Q: With `COc1ccc(C(=O)N2CCN(C(=O)CS(=O)(=O)c3ccccc3)C[C@@H]2C(=O)N[C@H]2CCCNC2=O)cc1` as the compound, how does the Potency read?
A: Its Potency is “inactive”.

Q: For `COCCNC(=O)CC[C@]12CC[C@](C)(O)C[C@H]1C(C)(C)C[C@@H]2NC(=O)c1ccc(C(F)(F)F)cc1`, which Potency is on record?
A: The Potency was “inactive”.

Q: For `Cc1nnc(-c2cc(-c3ccncc3)ccn2)n1CCN1CCOCC1`, which Potency is on record?
A: The Potency was “inactive”.

Q: With `COCCN1C(=O)c2ccccc2C(C(=O)Nc2nc(C)cs2)C12CCCCC2` (centres undefined) as the compound, how does the Potency read?
A: Its Potency is inconclusive: 7.94 µM [inhibitor, partial curve].

Q: With `Nc1cccc(-c2ccc(N3CCCCC3)nn2)c1` as the compound, how does the Potency read?
A: The Potency was inconclusive: 0.178 µM [inhibitor, partial curve, poor fit].

Q: Which Potency does the source give for `O=C1Nc2ccccc2OCC12CCN(Cc1cccc3ccccc13)CC2` here?
A: The Potency was “inactive”.

Q: For `NC1CCc2nn(CC(=O)NCc3ccc4c(c3)OCO4)c(=O)n2CC1` (centres undefined), which Potency is on record?
A: Its Potency is inconclusive: 4.47 µM [inhibitor, partial curve, poor fit].

Q: Which Potency does the source give for `COc1ccc(CCNC(=O)c2c(C)nn(-c3ccc(F)cc3)c2-n2cccc2)cc1OC` here?
A: The Potency was “inactive”.

Q: Which Potency does the source give for `Cc1cccc(N2CCN(C3(c4ccccc4)C(=O)c4ccccc4C3=O)CC2)c1C` here?
A: The Potency was inconclusive: 11.2 µM [inhibitor, single point].

Q: For `CNC(=O)[C@@H]1CN(C(=O)c2ccccc2C(F)(F)F)C[C@H]1CO`, which Potency is on record?
A: The Potency was “inactive”.

Q: Which Potency does the source give for `COc1ccc(Cn2c(C3CCN(C(=O)C4(c5ccccc5)CC4)CC3)n[nH]c2=O)cc1` here?
A: The Potency was “inactive”.

Q: Which Potency does the source give for `O=C(NCCc1ccccc1)Nc1cccc(-c2ccc(N3CCCCC3)nn2)c1` here?
A: The Potency was inconclusive: 14.1 µM [inhibitor, single point].

Q: Which Potency does the source give for `COc1ccc(NC(=O)CN2C(=O)COc3ccc(S(=O)(=O)N4CCCCC4)cc32)cc1Cl` here?
A: The Potency was inconclusive: 20 µM [inhibitor, single point].

Q: With `COc1ccc(NC(=O)c2oc3ccccc3c2NC(=O)Cc2cccs2)cc1` as the compound, how does the Potency read?
A: Its Potency is inconclusive: 8.91 µM [inhibitor, single point].

Q: Which Potency does the source give for `Cc1ccc(NC(=O)c2sc3nc(-c4ccc(F)cc4)ccc3c2N)cc1F` here?
A: Its Potency is “inactive”.

Q: Which Potency does the source give for `CNC(=O)c1cc[nH]c1C1CCCN(C(=O)CCc2nc3ccccc3[nH]2)C1` (centres undefined) here?
A: The Potency was inconclusive: 2.51 µM [inhibitor, partial curve].

Q: Which Potency does the source give for `CCOC(=O)c1cnc2ccc(C)cc2c1NCCc1ccc(OC)c(OC)c1` here?
A: The Potency was active: 8.91 µM.

Q: With `CCc1ccc([S+](=O)([O-])c2nnn3c2nc(NCCCOC)c2ccccc23)cc1` as the compound, how does the Potency read?
A: Its Potency is inconclusive: 7.94 µM [inhibitor, partial curve, poor fit].

Q: With `CCOC(=O)c1ccc(CN(Cc2ccccc2C)S(=O)(=O)c2ccc(F)c(C(=O)Nc3cccc(OC)c3)c2)cc1` as the compound, how does the Potency read?
A: Its Potency is inconclusive: 11.2 µM [inhibitor, single point].

Q: With `CCc1nc2c(c(-c3ccc(OC)cc3)n1)CCN(Cc1cncs1)CC2` as the compound, how does the activity, negative = inhibition read?
A: The activity, negative = inhibition was inconclusive: -61% [inhibitor].

Q: Which Potency does the source give for `Cc1c(C)n(Cc2ccc(F)cc2)c2ccc(C(=O)Nc3ccc(Cl)cc3)cc12` here?
A: Its Potency is inconclusive: 10 µM [inhibitor, single point].

Q: For `Cc1ccccc1CCN1CCCC(CN(C)C(=O)Nc2ccccc2C)C1` (centres undefined), which Potency is on record?
A: The Potency was inconclusive: 12.6 µM [inhibitor, partial curve].

Q: For `Cc1ccc(-c2cc3c(n2-c2ccccc2F)CC(C)(C)CC3=O)cc1`, which Potency is on record?
A: Its Potency is “inactive”.

Q: Which Potency does the source give for `CN1CCC(OC2CCN(C(=O)CCCc3ccccc3)CC2)CC1` here?
A: The Potency was inconclusive: 7.08 µM [inhibitor, partial curve, poor fit].

Q: For `COc1cccc(CN2CCCC(c3nc(-c4cccnc4)no3)CCNC(=O)CC2)c1OC` (centres undefined), which Potency is on record?
A: Its Potency is inconclusive: 2 µM [inhibitor, single point].

Q: With `CC(Oc1ccccc1)C(=O)NCc1nnc2ccc(-c3ccc(F)cc3)nn12` (centres undefined) as the compound, how does the Potency read?
A: Its Potency is “inactive”.

Q: For `COCCN1C(=O)c2cccn2CC1CNC(=O)Nc1ccc2c(c1)OCCO2` (centres undefined), which Potency is on record?
A: Its Potency is inconclusive: 0.398 µM [inhibitor, partial curve, poor fit].

Q: With `O=C(O)CCn1ncc2cc(OCc3ccc(-c4ccncc4)cc3)ccc21` as the compound, how does the Potency read?
A: Its Potency is inconclusive: 31.6 µM [inhibitor, single point].

Q: For `Cc1ccc(C)c(Cn2c(=O)n(CCCCCC(=O)NCc3ccc4c(c3)OCO4)c(=O)c3sccc32)c1`, which Potency is on record?
A: The Potency was inconclusive: 17.8 µM [inhibitor, single point].

Q: With `COc1ccc(C(=O)N2CCC3(CC2)OC(=O)N(Cc2csc(C)n2)C3(C)c2ccccc2)cn1` (centres undefined) as the compound, how does the Potency read?
A: Its Potency is inconclusive: 1.58 µM [inhibitor, full curve, poor fit].

Q: For `CCOc1ccc2c(n1)CCN(C(=O)COc1ccccc1)C2`, which Potency is on record?
A: Its Potency is inconclusive: 10 µM [inhibitor, partial curve].

Q: Which Potency does the source give for `CCC1CCCCN1CCCNC(=O)c1ccc2c(c1)N(Cc1ccc(Cl)cc1)C(=O)c1ccccc1S2(=O)=O` (centres undefined) here?
A: Its Potency is active: 3.98 µM.

Q: For `O=C1NCc2ccccc2CC12CCCN(Cc1cc(F)ccc1F)C2` (centres undefined), which Potency is on record?
A: Its Potency is inconclusive: 12.6 µM [inhibitor, partial curve, poor fit].

Q: With `c1ccc2[nH]c(C3CCC(Cn4cc(-c5cncnc5)nn4)CC3)nc2c1` (centres undefined) as the compound, how does the Potency read?
A: Its Potency is “inactive”.

Q: With `CCCOc1ccc(C2c3c(-c4ccccc4O)n[nH]c3C(=O)N2CCCOCC)cc1OCC` (centres undefined) as the compound, how does the Potency read?
A: Its Potency is inconclusive: 17.8 µM [inhibitor, single point].
